Test results taken from PubChem BioAssay AID488969 (Vanderbilt High Throughput Screening Facility, 2010).
Over roughly 110,000 compounds, “z-score” has its median near -0.1; the highest 2% begin near 2. Some of the results follow. Calls of active or inactive are those of the source.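 Rule for the calls: active = z-score in the third read window above 3 or below -3; inactive = the rest.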

Molecular target: Metabotropic glutamate receptor 8 (Rattus norvegicus) (UniProt P70579)
Experiment: mGluR8 Gi/Go-coupled signaling modulation – cell-based, rat, thallium flux, HTS, primary screen (AID 488969)
Conditions: HEK293 rat mGluR8, GIRK (G protein-gated inwardly rectifying potassium channel) thallium flux, FluoZin2; at 10 µM; stronger effect = higher value; submaximal glutamate (EC20) added with thallium

Sequence of UniProt P70579 (P70579 whole entry, looked up): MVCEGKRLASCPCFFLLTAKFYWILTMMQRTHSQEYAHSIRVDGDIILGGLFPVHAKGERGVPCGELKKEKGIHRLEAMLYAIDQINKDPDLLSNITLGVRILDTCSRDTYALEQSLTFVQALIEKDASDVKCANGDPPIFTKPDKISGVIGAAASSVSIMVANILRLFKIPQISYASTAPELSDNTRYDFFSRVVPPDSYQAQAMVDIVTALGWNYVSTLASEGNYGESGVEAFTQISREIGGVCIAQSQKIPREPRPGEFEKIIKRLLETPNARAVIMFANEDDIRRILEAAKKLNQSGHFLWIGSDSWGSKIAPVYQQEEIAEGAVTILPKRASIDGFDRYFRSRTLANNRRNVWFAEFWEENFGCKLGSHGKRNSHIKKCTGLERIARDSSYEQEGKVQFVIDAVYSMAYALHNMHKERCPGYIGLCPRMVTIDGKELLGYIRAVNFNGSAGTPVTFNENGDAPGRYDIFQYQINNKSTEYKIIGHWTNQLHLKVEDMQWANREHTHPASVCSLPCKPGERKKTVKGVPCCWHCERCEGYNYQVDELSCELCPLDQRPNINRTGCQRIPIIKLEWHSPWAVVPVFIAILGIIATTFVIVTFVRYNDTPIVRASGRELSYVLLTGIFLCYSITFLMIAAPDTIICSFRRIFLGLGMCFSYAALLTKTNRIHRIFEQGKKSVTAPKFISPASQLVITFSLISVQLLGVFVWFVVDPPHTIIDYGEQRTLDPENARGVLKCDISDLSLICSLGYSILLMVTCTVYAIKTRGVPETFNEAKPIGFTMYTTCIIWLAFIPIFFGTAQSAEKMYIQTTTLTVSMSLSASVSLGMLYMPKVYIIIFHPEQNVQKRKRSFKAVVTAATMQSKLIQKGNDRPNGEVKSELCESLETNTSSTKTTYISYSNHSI

| SMILES | z-score |
| --- | --- |
| O=C(NCCN1CCOCC1)c1ccc2c(c1)N(Cc1ccccc1)CCS2 | -1.4 |
| CCc1ccc(OCCNC(=O)c2ccccc2SCc2ccccc2)cc1 | -0.139 |
| CC1(C)CC(=O)c2sc(NC(=O)c3ccco3)nc2C1 | -0.147 |
| COn1c(SCc2cccnc2)nc2ccccc2c1=O | -0.128 |
| O=C(O)CC(C(=O)Nc1cccc(C(F)(F)F)c1)C1CCCO1 (configuration not stated) | 0.439 |
| CCCOc1ccc(C(=O)N2CCCC2)cc1OC | -0.411 |
| CCOC(=O)/C(=N\Nc1cc(C(F)(F)F)ccc1Cl)N(CC)CC | -0.0824 |
| Cc1cccc(C)c1NC1=NC(=S)N(c2ccccc2)C12CCOC(C)(C)C2 (configuration not stated) | 0.847 |
| Cc1cccc(NC(=O)CSc2nnc(C)n2Cc2ccccc2)c1 | 0.163 |
| CCOc1ccc(C(=O)NN2C(=O)C3C4C=CC(O4)C3C2=O)cc1 (configuration not stated) | -0.182 |
| O=C(CSc1ncn[nH]1)NCCCc1ccccc1 | 0.695 |
| Oc1ccc(C(c2nnnn2C2CCCC2)N2CCc3ccccc3C2)cc1 (configuration not stated) | -1.22 |
| CC(C)(C)C(=O)C(Cc1ccccc1Cl)n1cncn1 (configuration not stated) | 0.56 |
| CCc1ccc(NC(=O)COC(=O)CN2C(=O)COc3ccccc32)cc1 | 0.0972 |
| CSc1ccc(/C=C(\C#N)C(=O)Nc2cccc(C)c2)cc1 | -0.114 |
| Cc1cc(C)cc(NC(=O)N2CCCC2C(=O)Nc2ccc(-n3cnnn3)c(C)c2)c1 (configuration not stated) | -0.104 |
| COCCCn1c2nc3ccccc3nc2c2c(=O)n(-c3ccccc3OC)cnc21 | -0.0755 |
| O=C(O)CCN1Cc2ccccc2C1=O | 1.76 |
| CCOC(=O)c1c(C)[nH]c(C(=O)OCC(=O)NC2CCS(=O)(=O)C2)c1C (configuration not stated) | -0.115 |
| CCc1c(C(=O)Nc2ccc(S(=O)(=O)N3CCOCC3)cc2)csc1C | -0.0949 |
| CS(=O)(=O)N(CC(=O)N1CCN(Cc2ccccc2)CC1)c1ccc2c(c1)OCCO2 | -0.0915 |
| COc1ccc(NC(=S)NCc2cccs2)c(OC)c1 | 0.102 |

| SMILES | z-score |
| --- | --- |
| COC(=O)c1oc2ccc(Br)cc2c1NC(=O)CN1CCN(C)CC1 | 2.22 |
| N#Cc1c2n(c3c(=S)nc[nH]c13)CCCCC2 | 2.2 |
| Cc1ccccc1CS(=O)(=O)Cc1ccc(C(=O)NCC2CCCO2)o1 (configuration not stated) | 0.717 |
| O=C(Nc1ccc(N2CCOCC2)cc1)C1CCCN(S(=O)(=O)c2cccc(C(F)(F)F)c2)C1 (configuration not stated) | 2.63 |
| CCOC(=O)COc1ccc2c(c1)C(=O)CC1(CCCCC1)O2 | -0.292 |
| CS(=O)(=O)N(CC(=O)NCCSc1ccccn1)c1cccc2ccccc12 | 0.212 |
| CCCn1c(-c2cccnc2Cl)nc2cc(Cl)c(Cl)cc21 | -0.165 |
| CCOc1ccc(OCc2ccc(C(=O)N3CCCC3)o2)cc1 | -0.226 |
| COc1ccccc1C(=O)NNC(=O)c1cccc(F)c1 | -0.0578 |
| CCOc1ccc(NC(=O)N(CCN(C)C)C(C)c2ccncc2)cc1 (configuration not stated) | -0.191 |
| O=C(CCCn1c(=O)[nH]c2cc(Cl)ccc2c1=O)N1CCN(c2ccc([N+](=O)[O-])cc2)CC1 | -0.143 |
| O=[N+]([O-])c1ccc(/C=N/Nc2nc(N3CCCCC3)nc(N3CCCCC3)n2)o1 | -0.175 |
| COc1ccc(N2CCN(CC(=O)NC(=O)NCc3ccco3)CC2)cc1 | -0.015 |
| CC1(C)CC(=O)c2c(nc(SCC(=O)Nc3nsc(-c4ccccc4)n3)c(C#N)c2-c2ccccc2)C1 | -0.627 |
| COC(=O)c1cscc1NC(C)=O | 0.0475 |
| CN(C)c1ccnc2sc3c(=O)n(-c4ccccc4)cnc3c12 | 0.0117 |
| CC(C)(C)OC(=O)NC(CCNC=C1C(=O)OC(C)(C)OC1=O)C(=O)O (configuration not stated) | 0.0319 |
| COc1ccccc1C(c1nnnn1CC1CCCO1)N1CCC(C(N)=O)CC1 (configuration not stated) | 0.0288 |
| CCn1c(SCC(=O)Nc2ccccc2N2CCCCC2)nc2c1c(=O)n(C)c(=O)n2C | -0.541 |
| O=C(Nc1nc2cc(Cl)ccc2s1)C1CCCN(S(=O)(=O)c2cccc3cccnc23)C1 (configuration not stated) | 0.315 |
| COC(=O)C(CCSC)NC(=O)CNS(=O)(=O)c1ccc(F)cc1 (configuration not stated) | 0.00793 |
| CCOC(=O)c1cc(C(=O)c2cc(F)ccc2O)coc1=N | -0.462 |

| SMILES | z-score |
| --- | --- |
| CCN1CCN(CCC(=O)Nc2cccc(OC)c2)CC1 | 0.0688 |
| O=C(CCn1nc(-c2ccc(Cl)cc2)ccc1=O)N1CCOCC1 | 0.172 |
| c1nc(NCC2CCCO2)c2[nH]cnc2n1 (configuration not stated) | 0.26 |
| Cc1cc(C)n(-c2nc(-n3nc(C)cc3C)c3c4c(sc3n2)COC(C)(C)C4)n1 | 0.613 |
| Clc1ccc(-c2nnc(SCc3ccon3)o2)c(Cl)c1 | 0.0474 |
| O=C1/C(=C/c2ccc(F)cc2)SC(=S)N1Nc1ncc(C(F)(F)F)cc1Cl | 0.426 |
| CCc1ccc(NC(=O)c2cnn3ccccc23)cc1 | 0.194 |
| CCOc1ccc(N(CC(=O)OC)S(=O)(=O)c2ccc3c(c2)n(C)c(=O)c(=O)n3C)cc1 | -0.45 |
| O=S(=O)(c1cccc(-c2nc3n(n2)Cc2ccccc2-3)c1)N1CCCCC1 | -0.199 |
| Cc1ccc(N(CC(=O)N2CCc3ccccc32)C2=NC(=O)CS2)cc1 | 0.254 |
| Cc1ccc(-c2noc(CCC(=O)NCc3ccco3)n2)cc1 | 0.23 |
| COC(=O)c1ccc(COc2ccccc2/C=C(\C#N)C(=O)Nc2ccc(C)cc2C)cc1 | -0.285 |
| COc1ccc(CNc2nc3nc(-c4ccccc4)cc(=O)n3[nH]2)cc1OC | -0.647 |
| COc1ccccc1-c1cc(C2CC2)nc(N)c1C#N | -0.0758 |
| COc1ccc(/C=C2\SC(=O)N(CCC(=O)Nc3ccc(S(=O)(=O)Nc4nccs4)cc3)C2=O)cc1 | -0.0479 |
| CSc1nc2ccc(NS(=O)(=O)c3cccc(Cl)c3Cl)cc2s1 | -0.391 |
| O=C(CN1CCN(c2ncc(C(F)(F)F)cc2Cl)CC1)N1CCN(c2ncc(C(F)(F)F)cc2Cl)CC1 | -0.146 |
| Cc1ccc(S(=O)(=O)N/N=C\c2cc([N+](=O)[O-])ccc2Cl)cc1 | -0.0645 |
| CCCNC(=O)c1cc2c3ccccc3n(C)c2s1 | -0.375 |
| CN=c1sc2ccccc2n1CC(O)COCc1ccco1 (configuration not stated) | -0.223 |
| Cc1ccc(C(=O)OCC(=O)N2CCc3ccccc32)cc1 | -0.119 |
| N#C/C(=C\c1cccc(NC(=O)c2ccccc2Cl)c1)C(=O)NCCc1ccccc1 | -0.167 |

| SMILES | z-score |
| --- | --- |
| CCCCCn1c(N(C)Cc2ccccc2)nc2c1c(=O)[nH]c(=O)n2C | 0.428 |
| CN(C)c1ccc(CNC(=O)C2CCN(S(=O)(=O)c3ccc4c(c3)CCC(=O)N4)CC2)cc1 | -0.357 |
| CCc1nc(NCCN2CCOCC2)c2oc3ccccc3c2n1 | 0.0575 |
| C=CCc1cccc(/C=C/c2cc(=O)c3ccccc3[nH]2)c1O | -0.186 |
| O=C(N/N=C/c1cc([N+](=O)[O-])ccc1O)C1CCCCC1 | -0.174 |
| CCOC(=O)C1=C(CN2c3ccccc3CC2C)NC(=O)NC1c1ccccc1 (configuration not stated) | 0.11 |
| COCc1cc(C)nc(SCC(=O)Nc2cc3c(cc2C#N)OCO3)c1C#N | 0.982 |
| CC(C)C(=O)Nc1cccc(C(=O)OCC(=O)c2ccc(Cl)cc2Cl)c1 | -0.198 |
| COc1ccc2c(c1)c(C(=O)N/N=C/c1ccc(OC)c(OC)c1)c(C)n2C | 0.0746 |
| COc1ccc(-c2nc(N)ncc2-c2csc(C)n2)c(O)c1 | -0.298 |
| O=C(CSc1nc2ccccc2o1)NC(=O)NCc1ccco1 | 0.217 |
| C=CCn1c(SCn2nnc3ccccc3c2=O)nc2scc(-c3cccs3)c2c1=O | 0.0506 |
| CC(=O)c1ccc(NC(=O)CN2C(=O)/C(=C/C(C)=C/c3ccccc3)SC2=S)cc1 | -0.0841 |
| C=CCOc1c(Br)cc(CNc2ccc(NC(=O)CCC)cc2)cc1OCC | 0.0144 |
| Cc1cccc(N2CCN(c3nnnn3-c3ccccc3)CC2C)c1 (configuration not stated) | -0.672 |
| Cc1ccc(S(=O)(=O)N(C)c2cc(S(=O)(=O)Nc3ccncc3)c(C)cc2C)cc1 | -0.123 |
| O=c1[nH]c(CN2CCN(C/C=C/c3ccccc3)CC2)nc2ccccc12 | -0.00682 |
| CCn1nc(NC(=O)c2ccncc2)c2cc3cc(C)ccc3nc21 | -0.348 |
| Cc1cccc(C(=O)NNC(=O)c2ccccc2)c1 | -0.0133 |
| COc1cccc(-c2cc(C(=O)NC3CCCC3)no2)c1 | active: 5.04 |
| COc1ccc(C(=O)NC2CCN(S(=O)(=O)Cc3ccccc3)CC2)c(OC)c1 | -0.901 |
| CS(=O)c1ccccc1COC(=O)Nc1cccc(Cl)c1 (configuration not stated) | 0.588 |

| SMILES | z-score |
| --- | --- |
| CC(=O)CSc1nnc(-c2ccc(S(=O)(=O)N3CCC(C)CC3)cc2)o1 | -0.043 |
| CCOc1cc2c(cc1OCC)C(C(=O)O)C(c1cc(OC)c(OC)c(OC)c1)N(C)C2=O (configuration not stated) | -0.0232 |
| COc1cccc(C2C(C(=O)Nc3nc4ccccc4s3)=C(C)NC3=C2C(=O)CC(C)(C)C3)c1OC (configuration not stated) | -0.465 |
| COc1ccc(CNC(=O)c2c(O)c3cccc4c3n(c2=O)CCC4)cc1 | -0.554 |
| CCC1Sc2ccccc2N(CC(=O)NCCC2=CCCCC2)C1=O (configuration not stated) | -0.0914 |
| CCCn1c(N2CCN(CC(=O)NCc3cccs3)CC2)nc2ccccc21 | -0.152 |
| Cc1ccc(-c2cn3c(=O)cc(C)[nH]c3n2)cc1 | 0.529 |
| CCN(CC)CC(=O)Nc1ccc2c(c1)N(C(=O)CN(CC)CC)c1ccccc1CC2 | -0.342 |
| O=C(CSc1ncnc2c1cnn2-c1ccc(Cl)cc1)NCc1ccc2c(c1)OCO2 | active: 3.12 |
| COc1ccc(-n2ncc3c(N4CCN(c5cc(C)ccc5C)CC4)ncnc32)cc1 | -0.284 |
| Cc1ccc(C)c(NC(=O)CSc2nnc(-c3ccncc3)n2N)c1 | -0.406 |
| O=C(NCCc1ccccc1)C1CCCN1C(=O)NCc1ccccc1 (configuration not stated) | -0.304 |
| O=C(C1=C[C@@H]2[C@H]3C(=O)N(c4ccccc4)C(=O)[C@H]3[C@@H](C(=O)c3ccc(Cl)cc3)N2C=C1)c1ccccc1 | -0.0992 |
| CC(Cn1cnc2ccccc21)C(=O)O (configuration not stated) | 0.193 |
| Cc1ccc(NC(=O)c2cc3c(s2)CCCC3)cc1S(=O)(=O)Nc1ccccc1Cl | -0.228 |
| CCOC(=O)COc1ccc2nsnc2c1 | 0.229 |
| O=C1N/C(=C\c2ccc(N3CCOCC3)c(F)c2)C(=O)N1Cc1ccccc1 | -0.434 |
| Cc1cccc(NC(=S)NC(=O)/C=C/c2ccco2)n1 | 0.626 |
| O=C(Nc1ccccc1)/C(=C/c1cccc(Br)c1)NC(=O)c1ccco1 | -0.229 |
